Measured values published in PubChem BioAssay (NCATS).
Where “and” joins values, the source holds several entries; their conditions need not be identical. Equal entries are not always repeated. Inconclusive means that the source gave no clear call. Such entries were picked first, then a sample of the others. For some of these results: A potency beside an inconclusive call is a rough fit, not a confirmed value. Calls of active or inactive are those of the source. Unless noted, calls come from the whole dose curve; as a rule, active = well fitted curve in the direction sought with a large enough effect; inconclusive = small, poorly fitted or top-dose-only effect, or another doubt; inactive = no such curve, though single readings can be large; an effect the other way counts as inactive or inconclusive.

Tests used:
[1] = target: Endonuclease 4 (Escherichia coli (strain K12)) (UniProt P0A6C1); assay: Counterscreen for APE1 Inhibitors: qHTS Validation Assay for Inhibitors of Endonuclease IV (AID 1708); note: potency is the fitted concentration of half-maximal effect
Method in brief: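 Concentration-response counterscreen run identically to the APE1 assay: 15 min room-temperature preincubation of 2 nM enzyme with compound, reaction started with 50 nM quenched abasic DNA, progress taken from kinetic fluorescence.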

[2] = qHTS for differential inhibitors of proliferation of Plasmodium falciparum line 3D7 (AID 1876); note: potency is the fitted concentration of half-maximal effect
[3] = qHTS for differential inhibitors of proliferation of Plasmodium falciparum line D10 (AID 1877);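 note: potency is the fitted concentration of half-maximal effect; parasites grown with compound for 72 h before DNA staining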
[4] = qHTS for differential inhibitors of proliferation of Plasmodium falciparum line Dd2 (AID 1882); details: Potency: Plasmodium falciparum Dd2 proliferation inhibition;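 note: plate controls were DMSO vehicle for no effect and 0.29 µM artemisinin for full effect; nearly all actives have a fitted effect of over 65% in size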
Method in brief: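 Dd2-infected erythrocytes (0.3% parasitemia, 2.5% hematocrit final) incubated with compound 72 h at 37 C, 5% CO2; lysed with saponin/Triton buffer containing SYBR Green I, incubated overnight in the dark, then read by fluorescence (485/535 nm). Normalized to 0.29 uM artemisinin and DMSO.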

[5] = qHTS for differential inhibitors of proliferation of Plasmodium falciparum line HB3 (AID 1886); details: Potency: Plasmodium falciparum HB3 proliferation inhibition;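 note: potency is the fitted concentration of half-maximal effect; parasites grown with compound for 72 h before SYBR Green readout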
[6] = qHTS Assay for Modulators of Human Peripheral Myelin Protein 22 (PMP22) Expression/Activity (AID 1967; active = well fitted curve in the direction sought with a large enough effect in the signal ratio; inconclusive = small, poorly fitted or top-dose-only effect, or effect the other way, or a change in a side signal; inactive = no such curve, though single readings can be large or run the other way; the % refers to the signal ratio;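 note: 0% = untreated cells and 100% end not stated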); details: Cell-based PMP22 reporter, dual-color luciferase ratio, mouse Pmp22 promoter in mouse Schwann cells; activity change (ratio): at 115 µM (top of the series), 0% = compound-free control cells
Method in brief: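 Mouse MSC80 Schwann cells carrying Pmp22 promoter–green click beetle luciferase plus EF-alpha–red luciferase control, dosed 24 h at 37 °C. Dual-filter luminescence, overlap-corrected; %Activity from green/red ratio normalised to untreated cells, concentration-response curves fitted.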

[7] = target: RecQ-like DNA helicase BLM (Homo sapiens) (UniProt P54132); assay: qHTS Validation Assay for Inhibitors of Bloom's syndrome helicase (BLM) (AID 2364); note: potency is the fitted concentration of half-maximal effect
Method in brief: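 BLM 50 nM in 25 mM Tris-HCl pH 8.0, 5 mM NaCl, 2 mM MgCl2, 1 mM DTT, 0.01% Tween-20, 2.5 ug/ml poly(dI-dC); 15 min cpd preinc, RT. Start: 200 nM forked DNA + 2 mM ATP (final). TAMRA read, 2 reads 2 h apart.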

[8] = Validation screen for small molecules that induce DNA re-replication in MCF 10A normal breast cells (AID 463097); note: potency is the fitted concentration of half-maximal effect; nearly all actives have a fitted effect of over 60% in size
Method in brief: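 MCF 10A cells exposed to compound 48 hr at 37 C, 5% CO2, then Hoechst-stained 40 min. Laser-scanning imaging of nuclear DNA content (405 nm ex, 500-530 nm em); re-replication scored as rise in nuclei with elevated fluorescence intensity.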

[9] = target: ATP-dependent 6-phosphofructokinase (Trypanosoma brucei brucei) (UniProt O15648); assay: qHTS Validation Assay to Find Inhibitors of T. brucei phosphofructokinase (AID 485368)
Method in brief: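 Enzyme reaction in triethanolamine buffer pH 8.0 with 5 mM MgCl2, 0.01% Tween20 and 0.1% BSA; PFK 1.25 nM, F6P 0.5 mM, ATP 0.1 mM, 45 min RT. ADP quantified by ADP-Glo.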

[10] = Quantitative high throughput screen for delayed death inhibitors of the malarial parasite plastid, 96 hour incubation (AID 488745);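 note: luciferase-expressing P. falciparum in erythrocytes at 2% hematocrit and 0.1% parasitemia; % is set by controls: 0 for no effect and ±100 for the full control effect; nearly all actives have a fitted effect of over 70% in size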
Method in brief: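 Infected erythrocytes were added to compound in Albumax-supplemented RPMI 1640 at 0.1% parasitemia and 2% hematocrit (final), incubated 96 h at 37 C under 5% CO2, then luciferase reagent was added and luminescence measured.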

[11] = Quantitative high throughput screen for delayed death inhibitors of the malarial parasite plastid, 48 hour incubation (AID 488752); note: potency is the fitted concentration of half-maximal effect; nearly all actives have a fitted effect of over 65% in size
Method in brief: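 Readout is firefly luciferase luminescence from a reporter integrated into the parasite genome, with lower signal taken as inhibited growth. Infected red cells (0.1% parasitemia, 2% hematocrit final) are cultured with compound for one 48 h cycle at 37 C.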

[12] = target: Thioredoxin reductase 1, cytoplasmic (Rattus norvegicus) (UniProt O89049); assay: qHTS Assay for Substrates of Mammalian Selenoprotein Thioredoxin Reductase 1 (TrxR1) (AID 488772);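 note: NADPH fluorescence in the first read after selenite addition and not the 8 min delta; potency is the fitted concentration of half-maximal effect; a drop in NADPH fluorescence below the no-compound background marks a TrxR1 substrate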
Method in brief: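 Quantitative HTS in Tris-HCl buffer at pH 7.5 with EDTA and Tween-20, using rat TrxR1, 400 uM NADPH and 400 uM selenite (final). A fall in initial NADPH fluorescence relative to background marked substrate behaviour.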

[13] = target: Ubiquitin carboxyl-terminal hydrolase 1 (Homo sapiens) (UniProt O94782); assay: Inhibitors of USP1/UAF1: Pilot qHTS (AID 504865);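 note: rhodamine fluorescence freed from ubiquitin-rhodamine substrate followed over time; potency is the fitted concentration of half-maximal effect; nearly all actives have a fitted effect of over 35% in size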
Method in brief: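 USP1/UAF1 complex at 1 nM preincubated 15 min at room temperature with compound, then Ub-Rho substrate added at 150 nM final. Fluorescence (480/540 nm) read kinetically in 50 mM HEPES pH 7.8, 0.5 mM EDTA, 1 mM TCEP, 0.1 mg/ml BSA, 0.01% Tween-20.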

[14] = qHTS for Inhibitors of ATXN expression: Validation (AID 588378); note: potency is the fitted concentration of half-maximal effect; nearly all actives have a fitted effect of over 75% in size
Method in brief: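 HEK293 cells carrying ATXN2-firefly luciferase reporter, treated with compound 24 h at 37 °C. Viability read first by CellTiter-Fluor (405/525 nm), then reporter expression by Bright-Glo luminescence; controls were a known ATXN2 expression inhibitor and a luciferase inhibitor.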

[15] = qHTS for Activators of Parkin Expression: LOPAC Validation Assay (NLuc Reporter) (AID 720572; note: potency is the fitted concentration of half-maximal effect)
Method in brief: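 Neuronal line stably carrying a FLuc/NLuc coincidence reporter under the Parkin promoter, seeded 24 h, then dosed in 7-point series for 24 h at 37 C. NLuc luminescence read after FLuc; normalized to DMSO and positive control (100%).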

[16] = qHTS Assay for Identifying Gametocytocidal Compounds (AID 743244);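 note: % is set by controls: 0 for no effect and ±100 for the full control effect; actives lower the fluorescent signal which means gametocytes are killed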; details: P. falciparum 3D7 stage III-V gametocytes, alamarBlue, 72 h; max response: hits give low values
Method in brief: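 3D7 gametocytes, stages III–V, 20,000/well; cpd 72 h, 37 °C/5% CO2; + alamarBlue 24 h; fluor. Ex 525/Em 598.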

[17] = test system: Zika virus NS2B-NS3 protease (unlinked); assay: Optimization of GU AMC qHTS for Zika virus inhibitors: Unlinked NS2B-NS3 protease assay (AID 1347151); details: recombinant ZIKV NS2B-NS3 protease, fluorogenic AMC substrate; activity change, negative = inhibition: at 52.5 µM (top of the series) unless noted; note: potency is the fitted concentration of half-maximal effect; nearly all actives have a fitted effect of over 80% in size
Method in brief: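 Noncovalent NS2B hydrophilic domain–NS3 protease complex (25 nM final) in 10 mM Tris-HCl pH 8.0, 0.01% Tween 20; AMC substrate, room temperature 15 min (~20% conversion); fluorescence change normalized, 4-parameter Hill fit.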

[18] = test system: Zika virus NS2B-NS3 protease (linked construct); assay: Confirmatory screen NINDS AMC qHTS for Zika virus inhibitors (AID 1347152); note: potency is the fitted concentration of half-maximal effect; nearly all actives have a fitted effect of over 70% in size
Method in brief: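 Linked NS2B-NS3 protease, 1 nM, in 10 mM Tris-HCl pH 8.0, 0.01% Tween 20; compounds preincubated 15 min at room temperature. Nle-KRR-AMC 10 microM (Km 18.3 µM); 15-min fluorescence change (340/450 nm) fitted to 4-parameter Hill.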

[19] = ZIKV-mCherry secondary qHTS for Zika virus inhibitors (AID 1347158); details: Vero cells, ZIKV-mCherry infection imaging, 48-72 h; activity change, negative = inhibition: at 49.2 µM (top of the series); note: potency is the fitted concentration of half-maximal effect
Method in brief: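 Vero, 5,000 cells/well, o/n 37 °C; cpd pin-transferred in DMSO; ZIKV-mCherry MOI 1, 48-72 h 37 °C; 32% PFA stock fix, Hoechst; imaged 10x DAPI/mCherry; mCherry+ threshold 450 RFU; % infection.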

[20] = test system: Zika virus NS2B-NS3 protease (linked); assay: 384 well plate NINDS AMC confirmatory qHTS for Zika virus inhibitors (AID 1347163); note: potency is the fitted concentration of half-maximal effect; nearly all actives have a fitted effect of over 50% in size
Method in brief: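 Linked NS2B-NS3 protease (final 5 nM, 30 nM or 60 nM) was preincubated with compounds (final up to 1 mM) for ~15 minutes. Ac-VKTGKR-AMC substrate (final 30 microM) then reacted for 25 minutes at room temperature in the dark. Fluorescence (ex 355/em 460 nm) was normalized to no-enzyme and no-inhibitor controls.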

[21] = test system: Zika virus NS2B-NS3 protease (linked construct); assay: 384 well plate NINDS Rhodamine confirmatory qHTS for Zika virus inhibitors (AID 1347164);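 note: fluorescence from protease cleavage of Ac-LKRR-rhodamine 110 substrate; potency is the fitted concentration of half-maximal effect; nearly all actives have a fitted effect of over 65% in size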
Method in brief: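 Linked NS2B-NS3 protease (final 5, 30 or 60 nM) preincubated ~15 minutes with compounds, then 10 microM Ac-LKRR-Rhodamine 110 added. Fluorescence (485/538 nm) read after 25 minutes at room temperature, normalized to no-enzyme and no-inhibitor controls.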

[22] = Tertiary RLuc qRT-PCR qHTS assay for Zika virus inhibitors (AID 1347169); note: potency is the fitted concentration of half-maximal effect; nearly all actives have a fitted effect of over 55% in size
Method in brief: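 Vero cells (1,000/well) infected with recombinant ZIKV-RLuc (Cambodian) at MOI 1-2 after compound addition, 48-72 hrs at 37 degrees C. Live-cell Renilla luciferase substrate added; luminescence read after 1-1.5 hrs.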

[23] = qHTS to identify inhibitors of the type 1 interferon - major histocompatibility complex class I in skeletal muscle: primary screen against the NCATS LOPAC collection (AID 1347405);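 note: lytic HiBiT luminescence reporting HLA-B protein level; potency is the fitted concentration of half-maximal effect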
Method in brief: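 Luminescence from HiBiT fused to endogenous HLA-B in CRISPR-engineered human myoblasts served as the read-out. Cells received 4.0 ng/ml IFN-beta plus compound (seven concentrations, 1:4.3 steps, highest 46 uM final) for 24 hrs before lytic detection.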

[24] = target: Calcium and integrin-binding protein 1 (Homo sapiens) (UniProt Q99828); assay: Validation qHTS for Identification of Calcium Integrin Binding protein 1 (CIB1) Competitor (AID 1508618); note: potency is the fitted concentration of half-maximal effect
Method in brief: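 Displacement of FITC-alphaIIb peptide (100 nM) from CIB1-GST (1 uM) is monitored by polarization in quantitative HTS format; buffer carries 5 mM CaCl2 and 125 mM NaCl at pH 7.4, incubations are at room temperature.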

[25] = Primary qHTS for small molecule stabilizers of the endoplasmic reticulum resident proteome: Secreted ER Calcium Modulated Protein (SERCaMP) assay (AID 1508630); details: SH-SY5Y GLuc-SERCaMP (Gaussia luciferase released on ER calcium loss) secretion, thapsigargin, luminescence; activity change, negative = inhibition: at 38.4 µM (top of the series) unless noted; note: % is set by controls: 0 for no effect and ±100 for the full control effect
Method in brief: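 GLuc-SERCaMP-expressing SH-SY5Y cells, pretreated 16 h with compound, are challenged with thapsigargin to empty ER calcium stores; after 4 h, coelenterazine is added directly to the medium and luminescence is imaged.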

Papain (Carica papaya) = Papain (Carica papaya) (UniProt P00784); assay: Primary qHTS assay for inhibitors of the protease papain (AID 1645873);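 note: papain turnover of Z-FR-AMC read as the AMC fluorescence gain over 10 min; potency is the fitted concentration of half-maximal effect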
[26] = target: Rap guanine nucleotide exchange factor 3 (Homo sapiens) (UniProt O95398); assay: Confirmatory qHTS for antagonist of cAMP-regulated guanine nucleotide exchange factor 3 (EPAC1) (AID 1645880); details: EPAC1 Rap1B-BODIPY-GDP exchange, fluorescence; activity, negative = inhibition: at 115 µM (top of the series); note: potency is the fitted concentration of half-maximal effect; nearly all actives have a fitted effect of over 55% in size
Method in brief: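 Nucleotide exchange uses 100 nM EPAC1, 250 nM RAP1B-BODIPY-GDP and 50 uM GDP, with compounds in a concentration-titration series. After 5 min at room temperature, fluorescence (480 nm ex/540 nm em) is read every 5 min for 30 min. Data are normalized to control ATA and DMSO.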

[27] = target: Glutathione peroxidase 1 (Homo sapiens) (UniProt P07203); assay: Primary qHTS Assay for Inhibitors of Recombinant Selenoprotein Glutathione Peroxidase 1 (GPX1) (AID 1845191); note: nearly all actives have a fitted effect of over 65% in size
Method in brief: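 Recombinant GPX1 (10 nM final) was preincubated with compound for 30 min at room temperature, then reacted with 1 mM GSH, 0.5 mM CHP, 0.5 mM NADPH and 100 nM glutathione reductase; NADPH fluorescence (340/450 nm) was read at 0 and 15 min.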
Tags give direction and shape of the fitted curve.

Sequence of UniProt O95398 (O95398 whole entry, looked up): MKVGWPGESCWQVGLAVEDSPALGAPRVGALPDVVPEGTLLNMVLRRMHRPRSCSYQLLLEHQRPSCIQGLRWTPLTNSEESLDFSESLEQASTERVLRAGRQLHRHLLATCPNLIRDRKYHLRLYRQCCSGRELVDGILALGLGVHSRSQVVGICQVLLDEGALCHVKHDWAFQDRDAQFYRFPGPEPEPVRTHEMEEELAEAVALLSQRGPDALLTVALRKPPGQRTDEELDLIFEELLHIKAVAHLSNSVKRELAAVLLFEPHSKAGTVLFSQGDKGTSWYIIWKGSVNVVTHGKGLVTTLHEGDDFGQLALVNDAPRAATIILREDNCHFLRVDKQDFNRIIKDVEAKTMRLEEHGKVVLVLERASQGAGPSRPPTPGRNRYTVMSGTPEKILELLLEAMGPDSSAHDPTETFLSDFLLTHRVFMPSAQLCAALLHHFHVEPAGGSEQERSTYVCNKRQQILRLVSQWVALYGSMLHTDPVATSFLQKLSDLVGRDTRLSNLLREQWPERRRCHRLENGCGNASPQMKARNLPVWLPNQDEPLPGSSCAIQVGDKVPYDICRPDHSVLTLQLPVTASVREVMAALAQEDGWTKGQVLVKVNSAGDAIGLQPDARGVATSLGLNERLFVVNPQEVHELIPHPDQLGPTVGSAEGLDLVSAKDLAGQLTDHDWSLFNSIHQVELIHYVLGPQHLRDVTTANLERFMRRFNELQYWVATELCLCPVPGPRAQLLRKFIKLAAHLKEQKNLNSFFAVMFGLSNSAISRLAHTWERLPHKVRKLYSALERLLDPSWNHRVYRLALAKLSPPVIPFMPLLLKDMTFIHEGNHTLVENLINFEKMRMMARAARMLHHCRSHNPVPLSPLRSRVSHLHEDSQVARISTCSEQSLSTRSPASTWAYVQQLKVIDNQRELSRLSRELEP
Sequence of UniProt P07203 (P07203 whole entry, looked up): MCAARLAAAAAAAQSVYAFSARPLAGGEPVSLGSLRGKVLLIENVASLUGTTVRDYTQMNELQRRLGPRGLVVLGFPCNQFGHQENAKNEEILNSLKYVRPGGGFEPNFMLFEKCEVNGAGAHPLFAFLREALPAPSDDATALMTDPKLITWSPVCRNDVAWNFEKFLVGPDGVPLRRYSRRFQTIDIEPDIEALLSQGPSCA
Sequence of UniProt P00784 (P00784 whole entry, looked up): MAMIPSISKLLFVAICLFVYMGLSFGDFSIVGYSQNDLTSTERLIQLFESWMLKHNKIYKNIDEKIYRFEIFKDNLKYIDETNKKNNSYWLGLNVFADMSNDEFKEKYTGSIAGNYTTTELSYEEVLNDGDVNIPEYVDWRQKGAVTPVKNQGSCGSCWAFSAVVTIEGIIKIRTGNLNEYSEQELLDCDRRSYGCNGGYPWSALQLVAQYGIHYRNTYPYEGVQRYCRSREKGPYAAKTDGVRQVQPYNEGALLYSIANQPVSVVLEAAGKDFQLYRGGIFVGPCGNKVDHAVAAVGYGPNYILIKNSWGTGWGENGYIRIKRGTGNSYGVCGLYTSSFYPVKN
Sequence of UniProt O94782 (O94782 whole entry, looked up): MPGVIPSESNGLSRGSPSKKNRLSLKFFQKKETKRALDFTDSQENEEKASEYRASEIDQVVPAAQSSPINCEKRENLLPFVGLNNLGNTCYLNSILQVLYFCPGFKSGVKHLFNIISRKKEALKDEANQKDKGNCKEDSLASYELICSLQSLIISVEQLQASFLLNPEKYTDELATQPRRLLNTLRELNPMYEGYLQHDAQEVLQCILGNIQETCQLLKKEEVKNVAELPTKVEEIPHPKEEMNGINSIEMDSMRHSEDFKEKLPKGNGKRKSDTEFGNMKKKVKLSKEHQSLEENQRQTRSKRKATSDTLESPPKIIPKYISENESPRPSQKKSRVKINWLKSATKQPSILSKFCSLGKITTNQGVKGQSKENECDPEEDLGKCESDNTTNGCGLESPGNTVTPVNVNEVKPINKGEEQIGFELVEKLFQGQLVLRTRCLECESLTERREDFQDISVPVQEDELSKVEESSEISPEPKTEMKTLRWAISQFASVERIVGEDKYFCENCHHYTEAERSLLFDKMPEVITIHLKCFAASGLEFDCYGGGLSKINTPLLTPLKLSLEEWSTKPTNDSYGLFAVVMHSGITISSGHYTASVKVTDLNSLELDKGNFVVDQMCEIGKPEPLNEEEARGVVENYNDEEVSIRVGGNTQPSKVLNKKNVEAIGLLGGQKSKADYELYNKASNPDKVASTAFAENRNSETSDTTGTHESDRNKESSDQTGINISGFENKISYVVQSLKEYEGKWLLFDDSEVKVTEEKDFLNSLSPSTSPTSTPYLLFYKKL
Sequence of UniProt O89049 (O89049 whole entry, looked up): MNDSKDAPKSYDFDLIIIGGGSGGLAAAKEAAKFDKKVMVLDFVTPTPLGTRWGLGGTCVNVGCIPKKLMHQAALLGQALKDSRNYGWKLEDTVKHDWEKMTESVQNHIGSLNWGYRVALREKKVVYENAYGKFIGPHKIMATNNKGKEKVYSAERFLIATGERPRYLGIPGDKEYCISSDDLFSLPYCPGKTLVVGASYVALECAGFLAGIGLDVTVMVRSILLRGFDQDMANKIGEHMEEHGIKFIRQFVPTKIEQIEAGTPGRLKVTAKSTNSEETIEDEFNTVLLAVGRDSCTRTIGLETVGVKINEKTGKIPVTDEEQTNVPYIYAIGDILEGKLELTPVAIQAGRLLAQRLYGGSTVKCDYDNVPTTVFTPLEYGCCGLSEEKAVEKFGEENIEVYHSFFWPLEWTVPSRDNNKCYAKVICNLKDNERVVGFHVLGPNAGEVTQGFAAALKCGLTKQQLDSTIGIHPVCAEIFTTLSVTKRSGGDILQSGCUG
Sequence of UniProt P54132 (P54132 whole entry, looked up): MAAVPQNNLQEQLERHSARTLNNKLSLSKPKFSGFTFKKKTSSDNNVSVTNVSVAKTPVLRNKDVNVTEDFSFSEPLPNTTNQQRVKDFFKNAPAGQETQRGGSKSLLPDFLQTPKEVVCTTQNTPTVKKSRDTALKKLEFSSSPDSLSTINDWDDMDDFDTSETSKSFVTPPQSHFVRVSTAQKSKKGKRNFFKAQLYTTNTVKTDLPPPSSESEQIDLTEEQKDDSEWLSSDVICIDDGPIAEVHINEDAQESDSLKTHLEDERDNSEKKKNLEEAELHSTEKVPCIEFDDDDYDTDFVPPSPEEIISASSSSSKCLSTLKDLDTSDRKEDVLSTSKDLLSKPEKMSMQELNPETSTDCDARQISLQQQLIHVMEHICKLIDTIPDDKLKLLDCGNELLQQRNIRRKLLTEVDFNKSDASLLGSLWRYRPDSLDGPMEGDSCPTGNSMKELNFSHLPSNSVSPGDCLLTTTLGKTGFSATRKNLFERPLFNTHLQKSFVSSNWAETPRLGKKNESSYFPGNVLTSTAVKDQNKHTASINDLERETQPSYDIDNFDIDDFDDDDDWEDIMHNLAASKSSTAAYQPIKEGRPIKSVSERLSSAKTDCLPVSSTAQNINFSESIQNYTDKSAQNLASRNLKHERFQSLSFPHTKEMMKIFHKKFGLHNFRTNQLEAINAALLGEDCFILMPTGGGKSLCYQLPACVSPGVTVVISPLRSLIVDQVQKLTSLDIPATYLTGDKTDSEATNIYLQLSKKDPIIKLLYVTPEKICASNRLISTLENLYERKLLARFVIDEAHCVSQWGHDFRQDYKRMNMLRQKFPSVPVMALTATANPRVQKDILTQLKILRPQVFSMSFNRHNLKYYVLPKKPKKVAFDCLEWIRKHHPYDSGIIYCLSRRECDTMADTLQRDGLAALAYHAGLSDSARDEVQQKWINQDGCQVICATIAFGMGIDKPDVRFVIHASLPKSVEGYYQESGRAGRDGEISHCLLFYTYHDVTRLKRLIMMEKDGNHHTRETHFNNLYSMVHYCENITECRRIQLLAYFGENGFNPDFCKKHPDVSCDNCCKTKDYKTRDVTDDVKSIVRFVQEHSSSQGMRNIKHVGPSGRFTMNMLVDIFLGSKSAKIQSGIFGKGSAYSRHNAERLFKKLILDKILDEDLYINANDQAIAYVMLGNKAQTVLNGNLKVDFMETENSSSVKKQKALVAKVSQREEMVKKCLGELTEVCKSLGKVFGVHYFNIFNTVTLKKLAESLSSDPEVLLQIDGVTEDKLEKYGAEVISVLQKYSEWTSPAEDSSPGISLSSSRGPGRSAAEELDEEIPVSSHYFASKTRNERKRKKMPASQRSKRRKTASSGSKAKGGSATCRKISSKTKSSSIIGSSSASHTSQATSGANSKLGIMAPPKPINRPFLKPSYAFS
Sequence of UniProt O15648 (O15648 whole entry, looked up): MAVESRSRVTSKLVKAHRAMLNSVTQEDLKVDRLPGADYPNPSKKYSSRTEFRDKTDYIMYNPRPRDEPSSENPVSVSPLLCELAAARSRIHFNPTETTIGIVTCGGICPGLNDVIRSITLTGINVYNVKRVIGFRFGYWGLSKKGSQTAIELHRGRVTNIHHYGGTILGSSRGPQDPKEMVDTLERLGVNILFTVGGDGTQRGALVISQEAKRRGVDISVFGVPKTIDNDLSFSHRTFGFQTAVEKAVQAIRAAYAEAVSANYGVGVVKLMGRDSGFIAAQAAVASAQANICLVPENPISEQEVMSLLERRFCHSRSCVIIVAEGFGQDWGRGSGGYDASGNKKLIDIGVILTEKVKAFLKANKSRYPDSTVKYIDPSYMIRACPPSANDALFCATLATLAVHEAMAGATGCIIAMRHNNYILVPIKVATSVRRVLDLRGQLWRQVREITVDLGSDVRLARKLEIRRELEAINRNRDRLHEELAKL
Sequence of UniProt Q99828 (Q99828 whole entry, looked up): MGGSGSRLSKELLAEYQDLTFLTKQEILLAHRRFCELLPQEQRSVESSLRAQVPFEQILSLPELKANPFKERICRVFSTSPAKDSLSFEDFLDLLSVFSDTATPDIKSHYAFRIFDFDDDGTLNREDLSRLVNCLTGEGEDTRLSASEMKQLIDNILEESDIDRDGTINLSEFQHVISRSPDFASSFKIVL

CCCC[C@@]1(C2CCCC2)Cc2cc(OCC(=O)O)c(Cl)c(Cl)c2C1=O
inactive: Potency [4] | Potency [6] | Potency [9] | Potency [10] | max response [16] 8.17% | Potency [25] | Potency [27]
inconclusive: Potency [1] 3.55 µM [inhibitor, full curve, poor fit] | Potency [2] 11.2 µM [inhibitor, single point] | Potency [3] 14.1 µM [inhibitor, partial curve, poor fit] | Potency [5] 14.1 µM [inhibitor, partial curve] | Potency [7] 22.4 µM [inhibitor, partial curve] | Potency [8] 11.2 µM [activator, partial curve] | Potency [11] 18.5 µM [inhibitor, single point] | Potency [12] 37.7 µM [inhibitor, single point] | Potency [13] 79.4 µM [inhibitor, partial curve] | Potency [14] 39.8 µM [inhibitor, single point] | Potency [15] 18.4 µM [activator, single point] | Potency [17] 26.7 µM [inhibitor, single point] | Potency [18] 21.5 µM [inhibitor, partial curve] | Potency [19] 15.8 µM [inhibitor, partial curve, poor fit] | Potency [20] 0.316 µM [inhibitor, full curve] | Potency [21] 3.98 µM [inhibitor, full curve, poor fit] | Potency [22] 36.9 µM [inhibitor, single point] | Potency [23] 25.1 µM [inhibitor, partial curve] | Potency [24] 44.7 µM [inhibitor, partial curve] | Potency [26] 84.9 µM [inhibitor, partial curve] and 39.5 µM [inhibitor, partial curve, poor fit]
active: Potency (Papain (Carica papaya)) 25.1 µM
